Assay results published in the supplement of paper PMC7826260.
The other results are listed elsewhere or left out. Viral Rep nickase domains cut single-stranded DNA in vitro at 3 µM enzyme and 37 °C for 1 h; the strands have 90 letters, of which the middle is given. Values are log2 of uncut reads against the no-enzyme pool; more negative means more cut, near 0 not cut, and no call is made. Shares of all reads are compared, so uncut sequences can rise above 0 when many others are cut.

How the values were obtained:
Assay in all cases: uncleaved DNA left, log2 of reads against the no-enzyme library (log2 ratio); higher = less cleavage (more negative = more Rep cleavage of the k-mer); sequences stand for … in CTCGTCCG…ACCGGAGA
[1] = system: T1, Rep nickase domain of Muscovy duck circovirus
T1 sequence (protein, residues 1-111, tag omitted): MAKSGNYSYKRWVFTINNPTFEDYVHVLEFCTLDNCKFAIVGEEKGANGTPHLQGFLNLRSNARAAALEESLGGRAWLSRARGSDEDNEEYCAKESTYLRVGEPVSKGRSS
Procedure: (§1)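 A pool of 90-nt single-stranded DNAs with seven random bases just before the constant AC of the nick site (name = the seven bases) was cut by 3 µM recombinant His6-SUMO-tagged Rep nickase domain (300 nM DNA, 50 mM HEPES pH 8.0, 50 mM NaCl, 1 mM MnCl2, 1 h, 37 °C, three replicates). Uncut DNA was amplified and sequenced.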

[2] = system: T2, Rep nickase domain of banana bunchy top virus
T2 sequence (protein, residues 1-94, tag omitted): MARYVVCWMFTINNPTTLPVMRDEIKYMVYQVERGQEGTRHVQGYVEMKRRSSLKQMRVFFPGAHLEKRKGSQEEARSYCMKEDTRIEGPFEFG
Procedure: as §1

[3] = system: T3, Rep nickase domain of cabbage leaf curl virus
T3 sequence (protein, residues 1-116, tag omitted): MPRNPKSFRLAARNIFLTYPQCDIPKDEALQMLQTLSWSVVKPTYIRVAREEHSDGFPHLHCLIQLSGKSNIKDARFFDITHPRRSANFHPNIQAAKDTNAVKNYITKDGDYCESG
Procedure: as §1

[4] = system: T4, Rep nickase domain of chickpea chlorotic dwarf virus
T4 sequence (protein, residues 1-124, tag omitted): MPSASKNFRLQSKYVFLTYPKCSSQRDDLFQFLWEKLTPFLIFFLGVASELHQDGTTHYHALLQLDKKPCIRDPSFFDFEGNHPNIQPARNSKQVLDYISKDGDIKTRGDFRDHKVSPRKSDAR
Procedure: as §1

[5] = system: T5, Rep nickase domain of faba bean necrotic yellows virus
T5 sequence (protein, residues 1-98, tag omitted): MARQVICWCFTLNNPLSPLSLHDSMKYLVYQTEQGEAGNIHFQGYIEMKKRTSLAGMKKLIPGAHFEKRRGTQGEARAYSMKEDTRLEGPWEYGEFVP
Procedure: as §1

[6] = system: T6, Rep nickase domain of maize striate mosaic virus
T6 sequence (protein, residues 1-117, tag omitted): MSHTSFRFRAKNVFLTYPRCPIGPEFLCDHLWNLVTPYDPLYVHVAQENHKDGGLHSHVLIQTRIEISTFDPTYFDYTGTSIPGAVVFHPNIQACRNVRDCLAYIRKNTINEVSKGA
Procedure: as §1

[7] = system: T7, Rep nickase domain of porcine circovirus 2
T7 sequence (protein, residues 2-116, tag omitted): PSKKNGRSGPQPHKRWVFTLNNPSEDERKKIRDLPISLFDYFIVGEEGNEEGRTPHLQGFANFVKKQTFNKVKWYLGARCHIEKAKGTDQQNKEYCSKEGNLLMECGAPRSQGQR
Procedure: as §1

[8] = system: T8, Rep nickase domain of tomato golden mosaic virus
T8 sequence (protein, residues 1-124, tag omitted): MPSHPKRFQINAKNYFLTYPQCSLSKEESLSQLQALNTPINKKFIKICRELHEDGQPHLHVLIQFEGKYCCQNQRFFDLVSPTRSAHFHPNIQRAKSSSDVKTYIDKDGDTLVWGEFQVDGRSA
Procedure: as §1

[9] = system: T9, Rep nickase domain of tomato yellow leaf curl virus
T9 sequence (protein, residues 1-136, tag omitted): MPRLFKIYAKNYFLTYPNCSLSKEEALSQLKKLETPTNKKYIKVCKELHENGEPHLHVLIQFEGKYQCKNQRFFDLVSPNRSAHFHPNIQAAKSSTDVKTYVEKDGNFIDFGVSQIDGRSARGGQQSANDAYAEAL
Procedure: as §1

[10] = system: T10, Rep nickase domain of wheat dwarf virus
T10 sequence (protein, residues 1-137, tag omitted): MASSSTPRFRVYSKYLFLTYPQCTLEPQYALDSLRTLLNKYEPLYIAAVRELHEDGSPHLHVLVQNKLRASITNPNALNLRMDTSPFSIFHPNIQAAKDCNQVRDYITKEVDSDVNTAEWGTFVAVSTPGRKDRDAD
Procedure: as §1

Sequence | uncleaved DNA left (log2) [1] | uncleaved DNA left (log2) [2] | uncleaved DNA left (log2) [3] | uncleaved DNA left (log2) [4] | uncleaved DNA left (log2) [5] | uncleaved DNA left (log2) [6] | uncleaved DNA left (log2) [7] | uncleaved DNA left (log2) [8] | uncleaved DNA left (log2) [9] | uncleaved DNA left (log2) [10]
CACTAGA | 0.118 | 0.106 | -0.124 | -0.575 | 0.17 | -0.75 | -0.381 | 0.161 | 0.11 | 0.127
TTCAAGC | -0.0265 | -0.102 | 0.0666 | -0.102 | -0.0247 | -0.601 | 0.0366 | -0.0415 | -0.136 | -0.0537
GACTGTT | -2.47 | -2.07 | -0.281 | -0.77 | -0.277 | 1.09 | -2.93 | -0.0443 | -0.0241 | -0.0753
CTCCTAC | -0.204 | -0.162 | -0.355 | -2.15 | -0.146 | -0.843 | -0.348 | -0.194 | -0.219 | -0.13
GCCCGAT | -0.0935 | -0.0974 | 0.118 | 0.601 | -0.0205 | 0.815 | -0.00119 | -0.0649 | -0.058 | -0.148
AACGCGA | 0.0472 | -0.0276 | -0.797 | -0.209 | -0.0401 | -0.815 | -0.00785 | -0.0631 | -0.0578 | -0.169
GGTCAAC | 0.076 | 0.143 | 0.624 | 1.37 | 0.0203 | 1.95 | 0.223 | 0.0473 | 0.0401 | 0.123
ACGCCTT | -0.177 | -0.058 | -0.252 | -1.66 | -0.203 | -0.308 | -0.151 | -0.0447 | -0.153 | -0.107
TAGACTA | 0.0899 | 0.0996 | 0.0368 | -0.376 | 0.151 | 1.33 | -0.409 | -0.0349 | 0.0733 | 0.15
GTCAGCC | -0.0575 | -0.11 | 0.157 | 0.551 | -0.0495 | 0.693 | -0.0419 | -0.025 | -0.0975 | -0.135
TGGCTTA | 0.195 | 0.119 | 0.432 | 0.21 | 0.292 | 0.788 | 0.139 | 0.206 | 0.264 | 0.342
CGGGCAC | -0.0541 | -0.0676 | 0.646 | 1.56 | -0.152 | 1.9 | 0.0452 | -0.146 | -0.2 | -0.0427
AGACGTC | 0.13 | 0.00455 | 0.718 | 1.18 | 0.104 | 1.11 | 0.121 | -0.0861 | 0.0398 | 0.132
CTATATC | 0.0525 | 0.143 | -0.0216 | -0.158 | -0.0931 | -0.894 | 0.0265 | -0.192 | 0.125 | 0.103
CGCCAAT | -0.211 | -0.187 | -0.18 | -0.455 | -0.202 | -0.413 | -0.616 | -0.387 | -0.159 | -0.139
GGGGCCT | 0.0183 | 0.0802 | 0.91 | 1.9 | -0.0811 | 2.3 | 0.223 | 0.155 | 0.00632 | 0.209
TGCCTCC | 0.0418 | -0.13 | 0.186 | 0.0131 | -0.0766 | 0.568 | -0.0977 | -0.135 | -0.0774 | -0.0738
CTCGCGA | 0.0454 | -0.0627 | -0.591 | -0.496 | -0.163 | -0.721 | 0.102 | -0.205 | 0.00928 | -0.249
TTCACTG | -0.0983 | -0.134 | -0.106 | 0.0999 | -0.105 | 0.958 | -0.0895 | -0.206 | -0.233 | -0.126
TACCCTG | -0.0208 | -0.113 | -0.0147 | 0.238 | -0.0649 | 0.823 | -0.639 | -0.0701 | -0.134 | -0.047
CAGTTAG | 0.067 | 0.0153 | -0.719 | 0.0605 | 0.153 | -0.943 | 0.0634 | 0.127 | 0.136 | -0.0507
TTCCACA | 0.0984 | 0.0639 | 0.274 | -0.855 | -0.0318 | 0.405 | 0.0386 | 0.121 | 0.104 | 0.0783
CTGCAAT | 0.0173 | 0.0913 | -0.156 | -0.446 | 0.134 | -0.738 | 0.042 | 0.065 | -0.0439 | 0.131
TCCACTC | 0.0102 | -0.0581 | 0.0956 | -0.689 | -0.11 | -0.618 | -0.0359 | -0.12 | -0.137 | -0.0157
TGTTCTG | -0.00356 | -0.175 | -0.0937 | 0.133 | -0.0191 | 0.365 | -0.00619 | -0.0752 | -0.0163 | -0.0892
TTGCACC | -0.0395 | -0.143 | -0.471 | -0.686 | -0.0221 | -0.99 | -0.0701 | -0.116 | -0.0976 | -0.0739
GAGTGCT | -0.692 | -2.16 | -0.428 | -1.04 | -2 | -0.306 | -3.07 | -0.0754 | 0.0118 | -0.0885
TTATCAA | 0.115 | 0.215 | 0.825 | 1.65 | 0.104 | 1.92 | 0.0448 | 0.0951 | 0.133 | 0.237
GGGACCA | -0.0504 | 0.122 | 0.894 | 2.11 | -0.0171 | 2.27 | 0.218 | -0.00875 | -0.0737 | 0.157
AAATGCA | -0.294 | 0.0106 | -0.991 | -1.58 | 0.006 | -1.31 | -0.994 | -0.00608 | 0.0467 | -0.118
